The source of these data is patent US8633183B2 (priority 2010, dated 2014).

pEC50: −log10 of the molar value.

The test system of this test is PC3 (human prostate carcinoma cell line) cells. Description: cells. To be noted: read-out: EC50 PC3.

For orientation: pEC50 means −log10 of the EC50, conventionally taken in molar units. Turning to `CCc1ncnc(-c2ccc(C(=O)N3CCNCC3)c(F)c2)c1C#Cc1ccc(N)nc1` [Example D-113], the negative-log EC50 (pEC50) was 7.10.

Turning to `CCc1ncnc(-c2ccc(C(=O)N3CCN(CC4CCCN(C)C4)CC3)c(F)c2)c1C#Cc1ccc(N)nc1` [Example D-114], the pEC50 was 7.41.

With `CCOC(=O)N1CCN(C(=O)c2ccc(-c3ncnc(CC)c3C#Cc3ccc(N)nc3)cc2F)CC1` [Example D-116], the pEC50 was 7.66.

Regarding `CCc1ncnc(-c2ccc(C(=O)N3CCN(/C(=N\C#N)NC)CC3)c(F)c2)c1C#Cc1ccc(N)nc1` [Example D-117], the pEC50 is 6.61.

Regarding `CCc1ncnc(-c2ccc(C(=O)N3CCCN(C)CC3)c(F)c2)c1C#Cc1ccc(N)nc1` [Example D-118], the pEC50 is 7.32.

`CCc1ncnc(-c2ccc(C(=O)N(C)CCN3CCCC3=O)c(F)c2)c1C#Cc1ccc(N)nc1` [Example D-119]: the pEC50 was 6.94.

As to `CCc1ncnc(-c2ccc(C(=O)N3CCOC(C)(C)C3)c(F)c2)c1C#Cc1ccc(N)nc1` [Example D-120], the pEC50 was 6.70.

As to `CCc1ncnc(-c2ccc(C(=O)N3CCN(C4CC4)CC3)c(F)c2)c1C#Cc1ccc(N)nc1` [Example D-121], the pEC50 was 7.77.

For `CCc1ncnc(-c2ccc(C(=O)N3CCN(C(C)C)CC3)c(F)c2)c1C#Cc1ccc(N)nc1` [Example D-122], the pEC50 was 7.82.

As to `CCc1ncnc(-c2ccc(C(=O)N3CCC(O)(C(F)(F)F)CC3)c(F)c2)c1C#Cc1ccc(N)nc1` [Example D-123], the pEC50 was 7.12.

Consider `CCc1ncnc(-c2ccc(C(=O)N3CCC(O)(C(C)C)CC3)c(F)c2)c1C#Cc1ccc(N)nc1` [Example D-124], for which the pEC50 was 7.37.

Regarding `CCc1ncnc(-c2ccc(C(=O)N3CCC(O)(CC)CC3)c(F)c2)c1C#Cc1ccc(N)nc1` [Example D-125], the pEC50 is 7.03.

As to `CCc1ncnc(-c2ccc(C(=O)N3CCC(O)(c4ccccc4)CC3)c(F)c2)c1C#Cc1ccc(N)nc1` [Example D-126], the pEC50 was 6.84.

Take `CCc1ncnc(-c2ccc(C(=O)N3CCN(C)C(C)(C)C3)c(F)c2)c1C#Cc1ccc(N)nc1` [Example D-127]: the pEC50 was 7.10.

On to `CCc1ncnc(-c2ccc(C(=O)N3CCN(C)C(C)C3)c(F)c2)c1C#Cc1ccc(N)nc1` [Example D-128], for which the pEC50 is 7.19.

Take `CCc1ncnc(-c2ccc(C(=O)N3CCN(C(C)CC)CC3)c(F)c2)c1C#Cc1ccc(N)nc1` [Example D-129]: the pEC50 is 7.52.

In the case of `CCc1ncnc(-c2ccc(C(=O)N3CCN(C(CC)CC)CC3)c(F)c2)c1C#Cc1ccc(N)nc1` [Example D-130], the pEC50 was 7.35.

As to `CCc1ncnc(-c2ccc(C(=O)N3CCC[C@@H]3CO)c(F)c2)c1C#Cc1ccc(N)nc1` [Example D-131], the pEC50 was 7.24.

Turning to `CCc1ncnc(-c2ccc(C(=O)N3CC(C)NC(C)C3)c(F)c2)c1C#Cc1ccc(N)nc1` [Example D-132], the pEC50 was 7.01.

On to `CCc1ncnc(-c2ccc(C(=O)N3CCN(C)C(=O)C3)c(F)c2)c1C#Cc1ccc(N)nc1` [Example D-133], for which the pEC50 is 7.57.

Take `CCc1ncnc(-c2ccc(C(=O)N3CCC[C@H]3CO)c(F)c2)c1C#Cc1ccc(N)nc1` [Example D-135]: the pEC50 is 6.91.

Consider `CCc1ncnc(-c2ccc(C(=O)N3CCN(CC4CC4)CC3)c(Cl)c2)c1C#Cc1ccc(N)nc1` [Example D-136], for which the pEC50 is 6.97.

`CCc1ncnc(-c2ccc(C(=O)N3CCC(C4CCN(C)CC4)CC3)c(Cl)c2)c1C#Cc1ccc(N)nc1` [Example D-139]: the pEC50 is 6.84.

Take `CCc1ncnc(-c2ccc(C(=O)NC3CCCN(C)C3)c(Cl)c2)c1C#Cc1ccc(N)nc1` [Example D-140]: the pEC50 was 6.66.

Consider `CCc1ncnc(-c2ccc(C(=O)N3CC[S+]([O-])CC3)c(Cl)c2)c1C#Cc1ccc(N)nc1` [Example D-141], for which the pEC50 was 7.41.

Consider `CCc1ncnc(-c2ccc(C(=O)N3CCC(OC)CC3)c(Cl)c2)c1C#Cc1ccc(N)nc1` [Example D-142], for which the pEC50 is 7.10.

Regarding `CCc1ncnc(-c2ccc(C(=O)N3CCC(C)(O)CC3)c(Cl)c2)c1C#Cc1ccc(N)nc1` [Example D-143], the pEC50 is 7.12.

In the case of `CCc1ncnc(-c2ccc(C(=O)N3CC[C@H](O)C3)c(Cl)c2)c1C#Cc1ccc(N)nc1` [Example D-145], the pEC50 was 7.12.

`CCc1ncnc(-c2ccc(C(=O)N3CC[C@@H](O)C3)c(Cl)c2)c1C#Cc1ccc(N)nc1` [Example D-146]: the pEC50 is 7.10.

`CCc1ncnc(-c2ccc(C(=O)N3CCCC(O)C3)c(Cl)c2)c1C#Cc1ccc(N)nc1` [Example D-147]: the pEC50 is 7.48.

In the case of `CCc1ncnc(-c2ccc(C(=O)N3CCNCC3)c(Cl)c2)c1C#Cc1ccc(N)nc1` [Example D-152], the pEC50 is 7.14.

With `CCc1ncnc(-c2ccc(C(=O)N(C)O)c(Cl)c2)c1C#Cc1ccc(N)nc1` [Example D-153], the pEC50 was 7.26.

As to `CCc1ncnc(-c2ccc(C(=O)N3CCCN(C)CC3)c(Cl)c2)c1C#Cc1ccc(N)nc1` [Example D-154], the pEC50 is 6.91.

Consider `CCc1ncnc(-c2ccc(C(=O)N3CCN(c4ccncc4)CC3)c(Cl)c2)c1C#Cc1ccc(N)nc1` [Example D-155], for which the pEC50 was 7.19.

`CCc1ncnc(-c2ccc(C(=O)N3CCCOCC3)c(Cl)c2)c1C#Cc1ccc(N)nc1` [Example D-157]: the pEC50 is 7.37.

With `CCc1ncnc(-c2ccc(C(=O)NCC3(C)COC3)c(Cl)c2)c1C#Cc1ccc(N)nc1` [Example D-159], the pEC50 is 7.42.

Take `CCc1ncnc(-c2ccc(C(=O)N3CCN(Cc4ccccc4)CC3)c(Cl)c2)c1C#Cc1ccc(N)nc1` [Example D-160]: the pEC50 is 6.88.

Regarding `CCCCN1CCN(C(=O)c2ccc(-c3ncnc(CC)c3C#Cc3ccc(N)nc3)cc2OC)CC1` [Example D-161], the pEC50 is 6.81.

Take `CCc1ncnc(-c2ccc(C(=O)N3CCC(N4CCN(C)CC4)CC3)c(OC)c2)c1C#Cc1ccc(N)nc1` [Example D-163]: the pEC50 was 6.53.

For `CCc1ncnc(-c2ccc(C(=O)N3CCCC(O)C3)c(OC)c2)c1C#Cc1ccc(N)nc1` [Example D-164], the pEC50 is 7.04.

`CCc1ncnc(-c2ccc(C(=O)N3CCOCC3)c(OC)c2)c1C#Cc1ccc(N)nc1` [Example D-166]: the pEC50 was 6.94.

`CCc1ncnc(-c2ccc(C(=O)N3CC(O)CO3)c(OC)c2)c1C#Cc1ccc(N)nc1` [Example D-167]: the pEC50 was 6.42.

Turning to `CCc1ncnc(-c2ccc(C(=O)N3CCCO3)c(OC)c2)c1C#Cc1ccc(N)nc1` [Example D-168], the pEC50 is 6.98.

As to `CCc1ncnc(-c2ccc(C(=O)N3CCN(C4CCS(=O)(=O)C4)CC3)c(OC)c2)c1C#Cc1ccc(N)nc1` [Example D-172], the pEC50 is 6.41.

Take `CCc1ncnc(-c2ccc(C(=O)N3CC[C@@H](N(C)C)C3)c(OC)c2)c1C#Cc1ccc(N)nc1` [Example D-174]: the pEC50 was 6.55.

`CCc1ncnc(-c2ccc(C(=O)N3CCN4CCCCC4C3)c(OC)c2)c1C#Cc1ccc(N)nc1` [Example D-175]: the pEC50 is 7.02.

As for `CCc1ncnc(-c2ccc(C(=O)N3CCC(N4CCCCCC4)CC3)c(OC)c2)c1C#Cc1ccc(N)nc1` [Example D-176], the pEC50 was 6.42.

In the case of `CCc1ncnc(-c2ccc(C(=O)N3CCC(N(C)C)CC3)c(OC)c2)c1C#Cc1ccc(N)nc1` [Example D-177], the pEC50 is 6.55.

As to `CCc1ncnc(-c2ccc(C(=O)N(C)OC)c(OC)c2)c1C#Cc1ccc(N)nc1` [Example D-178], the pEC50 was 7.07.

For `CCc1ncnc(-c2ccc(C(=O)N(C)C3CCS(=O)(=O)C3)c(OC)c2)c1C#Cc1ccc(N)nc1` [Example D-179], the pEC50 was 6.87.

As to `CCOC(=O)N1CCN(C(=O)c2ccc(-c3ncnc(CC)c3C#Cc3ccc(N)nc3)cc2OC)CC1` [Example D-180], the pEC50 was 6.92.

As for `CCc1ncnc(-c2ccc(C(=O)NCCN3CCOCC3)c(OC)c2)c1C#Cc1ccc(N)nc1` [Example D-182], the pEC50 was 6.74.

As for `CCc1ncnc(-c2ccc(C(=O)N(C)CCN3CCCC3=O)c(OC)c2)c1C#Cc1ccc(N)nc1` [Example D-183], the pEC50 was 6.66.

For the compound `CCc1ncnc(-c2ccc(C(=O)N3CCN(CC4CCCCC4)CC3)c(OC)c2)c1C#Cc1ccc(N)nc1` [Example D-185], the pEC50 was 5.94.

For `CCc1ncnc(-c2ccc(C(=O)N3CCN(C4CCCC4)CC3)c(OC)c2)c1C#Cc1ccc(N)nc1` [Example D-186], the pEC50 was 6.72.

Regarding `CCc1ncnc(-c2ccc(C(=O)N3CCN(Cc4ccccc4)CC3)c(OC)c2)c1C#Cc1ccc(N)nc1` [Example D-187], the pEC50 was 6.53.

Take `Cc1ncnc(-c2ccc(C(=O)N3CCN(c4ccccc4)CC3)cc2)c1C#Cc1ccc(N)nc1` [Example D-188]: the pEC50 was 7.21.

As for `COCCN1CCN(C(=O)c2ccc(-c3ncnc(C)c3C#Cc3ccc(N)nc3)cc2)CC1` [Example D-189], the pEC50 was 7.20.

Turning to `CCCCN1CCN(C(=O)c2ccc(-c3ncnc(C)c3C#Cc3ccc(N)nc3)cc2)CC1` [Example D-190], the pEC50 is 7.21.

Take `Cc1ncnc(-c2ccc(C(=O)N3CCN4CCCCC4C3)cc2)c1C#Cc1ccc(N)nc1` [Example D-191]: the pEC50 was 7.26.

Consider `Cc1ncnc(-c2ccc(C(=O)N3CCN(C4CCS(=O)(=O)C4)CC3)cc2)c1C#Cc1ccc(N)nc1` [Example D-192], for which the pEC50 was 6.85.

As to `Cc1ncnc(-c2ccc(C(=O)N3CCN(C4CCOCC4)CC3)cc2)c1C#Cc1ccc(N)nc1` [Example D-193], the pEC50 is 7.16.

Regarding `Cc1ncnc(-c2ccc(C(=O)N3CCN(CCO)CC3)cc2)c1C#Cc1ccc(N)nc1` [Example D-194], the pEC50 was 6.87.

On to `CCc1ncnc(-c2ccc(C(=O)NCC(O)CN(C)C)c(F)c2)c1C#Cc1ccc(N)nc1` [Example D-196], for which the pEC50 is 6.84.

Take `CCc1ncnc(-c2ccc(C(=O)NC3CCCN(C)C3)c(F)c2)c1C#Cc1ccc(N)nc1` [Example D-197]: the pEC50 is 6.91.

For the compound `CCc1ncnc(-c2ccc(C(=O)NC3CC(N4CCN(C)CC4)C3)c(F)c2)c1C#Cc1ccc(N)nc1` [Example D-198], the pEC50 is 7.26.

`CCc1ncnc(-c2ccc(C(=O)NC3CCN(C)C3)c(F)c2)c1C#Cc1ccc(N)nc1` [Example D-199]: the pEC50 is 6.90.
